Experimental data as given in PubChem BioAssay AID624296 (National Center for Advancing Translational Sciences (NCATS), 2012).
The whole screen tested about 350,000 compounds, of which about 9,900 (2.8%) were called active. The inconclusive results got no clear call from the source; some entries with a clear call stand among them for comparison. Calls come from the whole dose curve; as a rule, active = well fitted activation curve with a large enough effect; inconclusive = small, poorly fitted or top-dose-only effect; inactive = no such curve, though single readings can be large or run the other way. Potencies of inconclusive entries are left out as doubtful fits.

Assay: A quantitative high throughput screen for small molecules that induce DNA re-replication in MCF 10a normal breast cells. For activity, positive = re-replication: % of control where 0% means no effect. Note: nearly all actives have a fitted effect of over 50% in size.
Conditions: MCF 10A DNA re-replication, Hoechst nuclear intensity, 48 h; activity, positive = re-replication: at 46.1 µM (top of the series)
Potency is the fitted concentration of half-maximal effect; tags give direction and shape of the fitted curve.

Row | SMILES | Potency | activity, positive = re-replication
1 | Fc1ccc(/C=N/NC(=S)NCCc2ccccc2)cc1F | inactive | –
2 | Cc1cc(=O)[nH]c(/N=C(\N)Nc2cccc3ccccc23)n1 | inconclusive [activator, single point] | –
3 | CC1(C)C[C@@H]1C(=O)N/C(=C\CCCCSC[C@H](N)C(=O)O)C(=O)O | inconclusive [activator, single point] | –
4 | COc1ccc(Cl)cc1NS(=O)(=O)c1cccc(C(=O)NC2CCN(Cc3ccccc3)CC2)c1 | inconclusive [activator, partial curve, poor fit] | –
5 | Cc1ccsc1/C=N/NC(=O)c1cccc(S(=O)(=O)Nc2ccccc2Cl)c1 | inactive | –
6 | CCOc1ccccc1Nc1nc2ccccc2n2cnnc12 | inactive | –
7 | COc1ccc(/C=C2\N=C(C)OC2=O)cc1OC | inconclusive [activator, single point] | –
8 | COc1cc(/C=C2\SC(=O)N(CC(=O)Nc3ccccc3F)C2=O)cc(Cl)c1O | inconclusive [activator, partial curve, poor fit] | –
9 | Cc1ccc(NC(=O)COC(=O)c2oc3ccccc3c2C)cc1S(=O)(=O)N1CCOCC1 | inactive | –
10 | CC(C)c1nc2cc(Cl)ccc2n(Cc2ccccc2)c1=O | inconclusive [activator, single point] | –
11 | CCOC(=O)C(=O)C1=C(N2CCOCC2)/C(=C\c2ccc(F)cc2)CC1 | inconclusive [activator, single point] | –
12 | CNC(=O)C(NC(=O)CNC(=O)c1ccc(Cl)cc1)C(C)(C)C (configuration not stated) | – | inactive: 1.17% [at 9.22 µM]
13 | O=C(COc1ccc(Cl)cc1)OCC(=O)N1CCOCC1 | inconclusive [activator, single point] | –
14 | CCN1C[C@@H]2[C@@H]3C(=O)N(Cc4ccccc4)C(=O)[C@@H]3[C@](CC)(C1=O)N2C(=O)c1ccc(Cl)c(Cl)c1 | inactive | –
15 | CCOC(=O)c1c(NC(=O)c2cccs2)sc2c1CC(C)(C)OC2 | inconclusive [activator, single point] | –
16 | COc1ccccc1Oc1ccc(S(=O)(=O)NCc2ccccn2)cc1 | inconclusive [activator, single point] | –
17 | O=C(c1ccccc1)N1CCN(C(=O)c2ccc([N+](=O)[O-])cc2)CC1 | inconclusive [activator, single point] | –
18 | CC(Sc1nnc(-c2ccco2)n1C)C(=O)Nc1ccc(N2CCOCC2)cc1 (configuration not stated) | inconclusive [activator, partial curve] | –
19 | O=C(Nc1cccnc1)c1cc([N+](=O)[O-])ccc1Cl | inconclusive [activator, single point] | –
20 | Nc1ncnc2c1ncn2[C@@H]1O[C@H](CNS(=O)(=O)c2ccc(-c3ccno3)s2)[C@@H](O)[C@H]1O | inactive | –
21 | O=C(N/N=C\c1cn(-c2ccccc2)nc1-c1ccccc1)c1ccc2c(c1)OCO2 | inactive | –
22 | CC(C)Cc1nc(N2CCC(C(N)=O)CC2)c2nnn(Cc3ccccc3)c2n1 | inconclusive [activator, partial curve, poor fit] | –
23 | Cc1ccc(NC(=O)CCn2c(=O)oc3ccccc32)cc1 | inconclusive [activator, single point] | –

Row | SMILES | Potency | activity, positive = re-replication
24 | O=C1C2CCCN2C(c2ccccc2F)N1c1ccc(Cl)cc1 (configuration not stated) | inconclusive [activator, partial curve, poor fit] | –
25 | COC(=O)[C@]1(Cc2ccccc2)N[C@H](CN(C)S(=O)(=O)c2ccc(C)cc2)[C@@H]2C(=O)N(Cc3ccccc3)C(=O)[C@@H]21 | inconclusive [activator, partial curve, poor fit] | –
26 | CN(Cc1ccccc1)C(=O)c1nc[nH]c1C(=O)N1CCN(C(=O)OC(C)(C)C)CC1 | inconclusive [activator, full curve, poor fit] | –
27 | CCn1c(SCC(=O)c2ccc(Cl)cc2)nnc1-c1ccoc1C | inconclusive [activator, partial curve, poor fit] | –
28 | Cc1occc(=O)c1OC(=O)Nc1ccc(Cl)c(Cl)c1 | active: 18.4 µM | –
29 | N#C/C(=C\c1ccc(Oc2ccc(C(F)(F)F)cc2[N+](=O)[O-])cc1)c1nc2ccccc2[nH]1 | inconclusive [activator, full curve] | –
30 | Cc1nc(Cc2nnc(SCC(=O)N3CC(=O)Nc4ccccc43)o2)cs1 | inactive | –
31 | COC1=CC(=O)c2c(ccc3ncnc(N)c23)C1=O | inactive | –
32 | Cc1cc(NC(=O)CN(C)CCOc2ccccc2)ccc1Br | inconclusive [activator, single point] | –
33 | CC(C)(C)OC(=O)C[C@H]1C/C=C\C[C@@H](CC(=O)NCCO)C(=O)N2CCC[C@H]2COC1=O | inconclusive [activator, partial curve, poor fit] | –
34 | COc1ccccc1NC(=O)N(Cc1ccco1)Cc1cc2cc(C)cc(C)c2[nH]c1=O | inconclusive [activator, single point] | –
35 | COc1ccccc1NS(=O)(=O)c1cccc(NC(=O)Nc2ccccc2)c1 | inactive | –
36 | COc1ccccc1Nc1nn2c(=O)c3ccc(C(=O)N4CCC(C)CC4)cc3nc2s1 | inconclusive [activator, single point] | –
37 | COc1ccc(CNC(=S)Nc2ccc3nc(N4CCN(C)CC4)cc(C)c3c2)cc1 | inconclusive [activator, full curve, poor fit] | –
38 | FC(F)(F)c1cc(-c2cccs2)nc(N2CCOCC2)n1 | inconclusive [activator, single point] | –
39 | CC(=O)c1cccc(NC2c3ncccc3C(=O)N2Cc2ccco2)c1 (configuration not stated) | inconclusive [activator, full curve] | –
40 | O=S(=O)(Nc1ccc(-c2csc(-c3ccccc3)n2)cc1)c1ccc(F)cc1 | active: 16.4 µM | –
41 | Cn1cncc1C#Cc1c(C=O)[nH]c2ccccc12 | inconclusive [activator, single point] | –
42 | CC1CC(C)CN(C(=O)C(NS(=O)(=O)c2ccc3c(c2)oc(=O)n3C)C(C)C)C1 (configuration not stated) | inconclusive [activator, partial curve, poor fit] | –
43 | COCc1cc(Sc2cccc(Cl)c2Cl)nc(-c2ccccc2)n1 | inconclusive [activator, partial curve, poor fit] | –
44 | Cc1[nH]c(=O)c(C(=O)/C=C/c2ccccc2)c2c1CCCC2 | inconclusive [activator, partial curve, poor fit] | –
45 | CCN(CC)c1ccc(N=Cc2cc(Br)ccc2O)cc1 | inconclusive [activator, single point] | –
46 | Cc1ccc(C(=O)Oc2cc(N)n(S(=O)(=O)c3ccc(C)cc3)n2)cc1 | inactive | –

Row | SMILES | Potency | activity, positive = re-replication
47 | O=C(Cc1ccc(Cl)cc1)c1c[nH]c(C(=O)NCCCn2ccnc2)c1 | active: 1.84 µM | –
48 | CCOc1ccccc1NC(=O)CSc1nnc(-c2cccnc2)o1 | inactive | –
49 | CCOC(=O)c1cnc2cc(C)nn2c1C | inactive | –
50 | Cc1cc(C(=O)CSc2nnc(-c3ccco3)o2)c(C)n1-c1ccc2c(c1)OCCO2 | inconclusive [activator, partial curve, poor fit] | –
51 | O=C(Cc1cccs1)NCCS(=O)(=O)N1CCN(c2ccccc2F)CC1 | active: 16.4 µM | –
52 | Cc1c(-c2ccccc2)[n+](=O)c2c(n1[O-])CCCC2 | inconclusive [activator, partial curve, poor fit] | –
53 | Cc1nc(SC2CC(=O)N(c3ccc([N+](=O)[O-])cc3)C2=O)nc2c1CCCC2 (configuration not stated) | inconclusive [activator, single point] | –
54 | CCOC(=O)C1CCN(C(=O)Nc2ccc3nc(-c4ccco4)c(-c4ccco4)nc3c2)CC1 | inconclusive [activator, single point] | –
55 | CCOC(=O)C1CCCN(CCc2ccccc2)C1 (configuration not stated) | inactive | –
56 | COC(=O)N/N=C/C1=C[N+](=O)c2ccccc2[N+]1=O | inactive | –
57 | C=CCn1c(CCc2cc(C(C)(C)C)c(O)c(C(C)(C)C)c2)n[nH]c1=S | inconclusive [activator, single point] | –
58 | COc1ccc2ccccc2c1CN(C)Cc1ccccc1 | inactive | –
59 | C=CCOc1cccc(C2/C(=C(/O)c3ccc(C)cc3)C(=O)C(=O)N2CCN2CCOCC2)c1 (configuration not stated) | inconclusive [activator, partial curve, poor fit] | –
60 | COc1ccccc1OC(=O)Nc1ccc(Cl)cc1 | inconclusive [activator, single point] | –
61 | COc1cc(OC)cc(C(=O)NCC(=O)OCC(=O)Nc2ncc(Cl)cc2Cl)c1 | inactive | –
62 | Cn1c(=O)c2c(nc(-n3ccnc3)n2Cc2ccc(Cl)cc2Cl)n(C)c1=O | inconclusive [activator, partial curve, poor fit] | –
63 | CCN(Cc1ccncc1)C(=O)c1cc(COc2ccc(C)c(C)c2)on1 | inactive | –
64 | CCc1cc(S(N)(=O)=O)cc(CC)c1NC(C)=O | inconclusive [activator, full curve, poor fit] | –
65 | Cc1ccc(-c2ccc(=O)n(Cc3ccc(F)cc3)n2)cc1 | inconclusive [activator, single point] | –
66 | O=C(CCc1nc2ccccc2c(=O)[nH]1)NCCN1C(=O)S/C(=C\c2ccccc2Cl)C1=O | inactive | –
67 | CCC(C)[C@H](NC(=O)N1CC(=O)Nc2ccccc21)C(=O)N[C@@H](Cc1c[nH]c2ccccc12)C(=O)O (some centres not stated) | inactive | –
